Measurements as given in PubChem BioAssay AID1508623 (National Center for Advancing Translational Sciences (NCATS), 2021).
About 450 (0.94%) of roughly 48,000 compounds were called active. Another 19% or so got no clear call; they are omitted. The call rests on the fitted dose curve; in most records, active means well fitted inhibition curve with a large enough effect; inconclusive means small, poorly fitted or top-dose-only effect; inactive means no such curve, though single readings can be large or run the other way. This is one part of the list.

Test: Primary qHTS for Identification of Small Molecule Inhibitors of Huntingtin Promoter Activity; further: nearly all actives have a fitted effect of over 50% in size
Details: HEK293 HTT promoter firefly luciferase reporter (activity 0% = vehicle and -100% = no light), 24 h; series mostly up to 57.5 µM; activity change, negative = inhibition: at the top concentration
Summary of the method: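 HEK293 cells carrying firefly luciferase reporters were seeded at 2,500 per well in Opti-MEM and cultured for 24 h. They were then treated with compounds at up to 57.5 uM final for 24 h at 37 degrees C before Dual-Glo luminescence readout.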

Activity change, negative = inhibition, inactive:
COc1cccc(CNC(=O)NCc2noc3ccc(C)cc23)c1 -18.6%
Cc1ccc(NC(=O)CN2C=NS(=O)(=O)c3ccccc32)c(C)c1 -9.71%
COc1ccc(N2CCN(C(=O)CCS(=O)(=O)c3cc(Br)cc4c3N(C(=O)C3CC3)CC4)CC2)cc1 -13.9%
COc1ccc(NC(=O)CN2C(=O)COc3ccc(S(=O)(=O)N4CCOCC4)cc32)cc1Cl -10.9%
COc1ccc(NC(=O)Nc2nnc(N3CCCCCC3)s2)c(OC)c1 -27.5%
COc1cccc(-n2c(=O)c3cc(OC)c(OC)cc3n(CC(=O)Nc3ccccc3)c2=O)c1 -16.2%
O=C(c1ccc2c(c1)N(Cc1ccc(F)cc1)C(=O)c1ccccc1S2(=O)=O)N1CCCCCC1 -36.1%
Cc1ccc(N2CC(NC(=O)c3ccco3)CC2=O)cc1 (stereo not given) -10.3%
O=C(Nc1cc2c(cc1C(=O)c1ccc(Br)cc1)OCCO2)c1ccc(Cl)cc1 -1.77%
Cc1ccc(C)c(S(=O)(=O)c2cn(C)c3cc(F)c(F)cc3c2=O)c1 -9.55%
CC(=O)Nc1ccccc1-c1nc2ccccc2n(CC(=O)Nc2ccc(C)c(Cl)c2)c1=O -2.66%
COc1ccc(CCn2c(=O)c3ccccc3n(CC(=O)Nc3cccc(C)c3)c2=O)cc1OC 14.6%
Cc1ccc(S(=O)Cc2ccc(C(=O)NC3CCCCCC3)o2)cc1 (stereo not given) -10%
Cc1ccccc1CN1C(=O)c2ccccc2S(=O)c2ccc(C(=O)NCc3ccco3)cc21 (stereo not given) -22.6%
Cc1[nH]c2ccc(C(=O)Nc3ccc(F)cc3)cc2c1C 64.5%
CCN(C(=O)CCS(=O)(=O)c1ccc2c(c1)oc(=O)n2C)c1ccc(OC)cc1 20.8% [at 11.5 µM]
Cc1ccc(NC(=O)CSc2nc3c(c(=O)[nH]2)CCC3)cc1Cl -20.3%
CCS(=O)(=O)N1CCC2(CC1)OC(=O)C(C)=C2C(=O)NCc1cccc(Cl)c1 -18.7%
CCn1c(COc2cccc(C)c2)nc2ccccc21 -13.4%
COc1cc2c(cc1NC(=O)COc1ccc(Br)cc1C)oc1ccccc12 1.61%
CC(C)CCNC(=O)CCC(=O)N1Cc2ccccc2Oc2ncccc21 0.0987%
CCn1c(SCC(=O)Nc2ccccc2)nc2c([nH]c3ccccc32)c1=O -4.21%
COc1ccccc1C(=O)Nc1c(C(=O)N2CCN(c3ccccc3F)CC2)oc2ccccc12 -26.7%
COc1ccc(NC(=O)CCCSc2nc(-c3ccco3)cc(C(F)(F)F)n2)cc1 -28.9%
Cc1cc2c(cc1S(=O)(=O)NCc1ccccc1)OCC(=O)N2 -24.9%
O=C(c1ccccc1)c1ccc2nc(N3CCN(c4ccccc4)CC3)c3nncn3c2c1 -19.7%
Cc1ccc(CNC(=O)c2ccc3c(c2)NC(=O)C(CS(=O)(=O)Cc2ccc(F)cc2)N3)cc1 (stereo not given) 0.0395%
CN(C)c1cccc(C(=O)Nc2nc3ccc(S(=O)(=O)NC(C)(C)C)cc3s2)c1 -27.8%
CCC1CCCCN1CCCNC(=O)c1cn(CC)c2ccc(S(=O)(=O)N(C)C3CCCCC3)cc2c1=O (stereo not given) -6.69%
Cc1nc2ccc(S(=O)(=O)CCC(=O)Nc3ccc(C(C)C)cc3)cc2s1 -11.5%
O=C(/C=C/c1ccc(O)c(O)c1)O[C@@H]1C[C@@](OC(=O)/C=C/c2ccc(O)c(O)c2)(C(=O)O)C[C@@H](O)[C@@H]1O 11.5%
COC(=O)c1sc(-c2ccccc2)cc1NC(=O)Nc1ccccc1Cl -22%
Cc1cc(C)cc(Nc2nc3ccccc3nc2-n2nc(C)cc2C)c1 -8.54%
CCOC(=O)N1CCc2c(sc3c2c(=O)n(Cc2ccccc2)c(=O)n3CC(=O)Nc2cccc(C)c2)C1 -6.29%
COc1ccc(-c2cn3c(n2)sc2cc(C(=O)Nc4c(C)cccc4C)ccc23)cc1 -12.7%
Cc1ccc(CNC(=O)C2(c3cccs3)CCOCC2)cc1 -2.91%
CCCCC(=O)Nc1cc(-c2nc3cccnc3s2)ccc1C 26.3%
CCOc1ccc(NC(=O)CSc2ncnc3c2sc2ccccc23)cc1 3.01%
CN(C)S(=O)(=O)c1ccc(C(=O)Nc2c(C(=O)Nc3ccc(F)cc3)oc3ccccc23)cc1 2.16%
COc1ccc(C(=O)n2nc(-c3ccc(Cl)cc3)nc2NCc2ccco2)cc1 9.68%
CCc1ccc(NC(=O)c2cc3c(COC(C)=O)cnc(C)c3oc2=O)cc1 1.42%
CNC(=O)C1CCC(Cn2c(=O)c3sccc3n(CC(=O)NCc3ccc(C)cc3)c2=O)CC1 (stereo not given) -13.7%
Cn1c(=O)oc2cc(S(=O)(=O)N3CCCC(C(=O)NCc4ccccc4Cl)C3)ccc21 (stereo not given) -15.2%
COc1ccc(NC(=O)Cn2c(=O)oc3cc(Cl)ccc32)c(OC)c1 -2.83%
CCc1ccc(NC(=O)CSc2nc(C)c(C(=O)Nc3ccc(Cl)cc3)c(-c3ccc(OC)cc3)c2C#N)cc1 -12.2%
Cc1ccc(C)c(NC(=O)CCCn2c(C)c3cnn(-c4ccccc4)c(=O)c3c2C)c1 -19.1%
O=C(CSc1nc2c([nH]c3ccccc32)c(=O)n1-c1ccc(F)cc1)NCC1CCCO1 (stereo not given) -18.1%
O=C(CSc1nc2c([nH]c3ccccc32)c(=O)n1-c1ccccc1)N1CCCc2ccccc21 7.55%
Cc1cccc(NC(=O)c2cc(CN3CCOCC3)on2)c1C 2.69%
Cc1cccc(S(=O)(=O)c2cn(C)c3cc(N4CCCCCC4)c(F)cc3c2=O)c1 -12.3%
COc1ccc(NC(=O)Cn2nc3c(cc2=O)CCCC3)cc1Cl -12.5%
COc1cccc(C(=O)c2cn(CC(=O)Nc3cc(Cl)c(OC)cc3OC)c3nc(C)ccc3c2=O)c1 -9.54%
Cc1nc(N2CCCC2)ncc1C(=O)NCc1ccc(Cl)cc1 -17%
CC1=C(c2ccc(F)cc2)S(=O)(=O)N=C1N1CCC(C(=O)NCCc2ccccc2)CC1 -10.8%
O=C(NCc1ccc(Cl)cc1)c1cc2ccc3cccnc3c2[nH]1 8.46%
COc1ccccc1N1CCN(S(=O)(=O)c2ccc(-c3ccno3)cc2OC)CC1 -19.8%
Cc1ccc(NC(=O)NCCOCCn2c(=O)oc3ccccc32)c(C)c1 -9.18%
CC(C)c1ccc(Cc2cn3cc(-c4cc5ccccc5oc4=O)nc3s2)cc1 -35%
COc1cccc(-n2c(SCC(=O)Nc3cccc(C)c3)nc3c([nH]c4ccccc43)c2=O)c1 -29.2%
Cc1ccc(C)c(NC(=O)C2CCN(c3ncnc4c3nc3n4CCCCC3)CC2)c1 -2.29%
